In PubChem BioAssay AID686992 (Broad Institute, 2013):
In all, about 260,000 compounds went through this assay and about 960 (0.37%) were called active. The inconclusive results got no clear call from the source; some entries with a clear call stand among them for comparison.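 Rule for the calls: active = mean E-selectin-positive cell signal at least 10% of the positive control, reached in at least 60% of replicates, without over 20% cell loss; inconclusive = no rule given, readout overlaps actives, possibly toxicity-flagged; inactive = the rest, including those meeting only one limit.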

biological target: E-selectin (Homo sapiens) (UniProt P16581); assay: inducers of endothelial E-selectin expression – imaging, HUVEC, immunofluorescence imaging, single point, primary screen (AID 686992); details: at 7.58 µM, stronger effect = higher value, normalized: neutral wells 0, TNF-alpha wells 100;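 note: signal is the percent of cells scored E-selectin positive by PE staining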
Summary of the method: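 Test system: HUVEC | Signal: Immunofluorescence imaging | Read-out: Percent E-selectin-positive cells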

Chain of UniProt P16581 (P16581 whole entry, looked up): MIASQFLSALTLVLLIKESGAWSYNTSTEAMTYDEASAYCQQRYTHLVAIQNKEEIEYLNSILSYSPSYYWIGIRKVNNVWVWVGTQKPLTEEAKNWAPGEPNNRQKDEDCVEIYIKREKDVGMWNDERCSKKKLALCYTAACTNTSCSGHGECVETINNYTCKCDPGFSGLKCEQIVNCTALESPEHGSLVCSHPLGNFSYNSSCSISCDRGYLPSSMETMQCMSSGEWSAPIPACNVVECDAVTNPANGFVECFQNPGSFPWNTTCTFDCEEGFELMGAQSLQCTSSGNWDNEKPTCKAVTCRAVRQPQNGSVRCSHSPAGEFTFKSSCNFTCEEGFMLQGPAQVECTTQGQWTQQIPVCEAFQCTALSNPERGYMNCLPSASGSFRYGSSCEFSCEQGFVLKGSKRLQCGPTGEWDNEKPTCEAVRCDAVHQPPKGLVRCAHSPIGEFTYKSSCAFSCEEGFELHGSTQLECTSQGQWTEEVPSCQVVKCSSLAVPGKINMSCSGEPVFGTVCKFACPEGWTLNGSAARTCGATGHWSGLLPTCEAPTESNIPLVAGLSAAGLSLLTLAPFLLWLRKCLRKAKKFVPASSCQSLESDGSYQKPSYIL

SMILES	activation
C[C@@H]1CN([C@H](C)CO)C(=O)c2cccc(NC(=O)CCCCCC(=O)Nc3ccccc3N)c2O[C@H]1CN(C)Cc1ccc2c(c1)OCO2	inconclusive: 172%
C[C@@H]1CN([C@@H](C)CO)C(=O)c2cccc(NC(=O)c3ccncc3)c2O[C@H]1CN(C)C(=O)Nc1cccc2ccccc12	active: 26.5%
C[C@H]1CN([C@@H](C)CO)C(=O)c2cc(-c3cccc(C#N)c3)cnc2O[C@H]1CN(C)Cc1cccnc1	inconclusive: 28.5%
COc1ccc(CN2CCOCCOCCN(Cc3ccc(OC)cc3)CCOCCOCC2)cc1	inconclusive: 42.4%
COc1ccc(S(=O)(=O)Nc2ccc3c(c2)C(=O)N([C@H](C)CO)C[C@@H](C)[C@@H](CN(C)Cc2ccc4c(c2)OCO4)OCCCC[C@H](C)O3)cc1	inactive: -0.075%
COc1cccc(C2c3c(oc4ccccc4c3=O)C(=O)N2CCCN2CCOCC2)c1OC (centres undefined)	active: 45.9%
O=c1c([N+](=O)[O-])c(O)c2cccc3c2n1CCC3	inconclusive: 33.5%
CSCCC(C(=O)OC1CCOC1=O)N1C(=O)c2ccccc2C1=O (centres undefined)	inconclusive: 53.7%
CC(C)(CN1CCCC1)NS(=O)(=O)c1ccc(Cl)cc1	inconclusive: 41.2%
COc1ccc(S(=O)(=O)Nc2ccc3c(c2)C(=O)N([C@H](C)CO)C[C@@H](C)[C@@H](CN(C)Cc2ccc(Cl)c(Cl)c2)O3)cc1	active: 29%
COc1ccc(-c2cc(=O)oc3cc(OC(=O)C4CCCCC4)c(Cl)cc23)cc1	inconclusive: 69.7%
COc1ccc2c3c([nH]c2c1)[C@H](CO)N(C(=O)C1CCOCC1)CC31CCN(S(C)(=O)=O)CC1	inactive: 0.205%
COCCNC(=O)C[C@H]1C[C@H]2c3cc(NS(=O)(=O)c4ccc(F)cc4)ccc3O[C@H]2[C@@H](CO)O1	inactive: 0.335%
CO[C@H]1CN(C)C(=O)c2cc(NC(=O)Nc3ccc(Cl)cc3)ccc2OC[C@H](C)NC[C@H]1C	active: 66.3%
CC(C)NC(=O)N(C)C[C@@H]1Oc2ccc(NS(=O)(=O)c3cccs3)cc2CC(=O)N([C@H](C)CO)C[C@@H]1C	active: 26.4%
Cc1ccc(S(=O)(=O)N(C)C[C@H]2Oc3c(cccc3N(C)C)C(=O)N([C@H](C)CO)C[C@H]2C)cc1	inconclusive: 0.428%
O=C(Nc1ccc2c(c1)OCCO2)c1ccoc1	inconclusive: 40.2%
Cn1cccc1C(=O)OCC(=O)NC(=O)c1ccc(Cl)cc1	inactive: 0.0195%
O=C(NCCNC(=O)c1ccccc1)c1ccccc1	inconclusive: 73.1%
